Reference: the RNAGym collection of RNA variant scans (doi:10.1073/pnas.2313332121)
Variants at the background level are over-represented here.

B1: TPR 5TU (parent)
chain: GGAUCUUCUCGAUCUAACAAAAAAGACAAAUCUGCCACAAAGCUUGAGAGCAUCUUCGGAUGCAGAGGCGGCAGCCUUCGGUGGCGCGAUAGCGCCAACGUUCUCAACUAUGACACGCAAAACGCGUGCUCCGUUGAAUGGAGUUUAUCAUG

Variants of: B1
Test: polymerase ribozyme fitness, log enrichment relative to wild type (log ratio); higher = more active; in vitro selection for triplet polymerase activity
Summary of the method: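 For each subunit of a heterodimeric triplet polymerase ribozyme, a mutant library was built by PCR and transcribed, then taken through a single in vitro selection round in triplicate. Selection involved annealing to a biotinylated primer, the partner subunit and triplets, incubation frozen at −7 °C, gel excision of extended constructs, capture on streptavidin beads and RT-PCR. Genotypes were retained after Illumina sequencing of inputs and outputs only with ≥10 input reads and ≥1 read in each output. Fitness is defined as the logarithm of a genotype's enrichment relative to wild-type enrichment, using inverse-variance-weighted averages across replicates, with the logarithm taken to base 2.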

Variant	polymerase ribozyme fitness (log ratio)
A41C U45G A47G G59A G65A U77C C87U C99U C105G	≤ -4.2
A41C U53A U102C C103G A113U	≤ -4.2
A41C U53C C125G U144A	-2.53
A41C U55A C75U C93A C105A C108A A110U	≤ -4.2
A41C U55A C93A	-3.32
A41C U55A G133A	≤ -4.2
A41C U55A U90G G92U	≤ -4.2
A41C U55G C63U G83A C85U A98G C123G G140U	≤ -4.2
A41C U56A C57A A115U C116U	-2.62
A41C U56A C87U	-1.41
A41C U56A C87U U135G	≤ -4.2
A41C U56A G94U A98C C116G U151G	≤ -4.2
A41C U77C G80A U102C U144G	≤ -4.2
A41C U82A C93U C103A A106U U130G	≤ -4.2
A41C U102C G143A C149G	≤ -4.2
A41C U134G	-2.46
A41G A47C C76U C79A C96U U139C	≤ -4.2
A41G A47U C51U A52C G88A G136U	≤ -4.2
A41G A47U G88C C93G	≤ -4.2
A41G A47U G88C G133U C149A	≤ -4.2
A41G A49C C51A G65A A66U C87G C95A U102C C131A	≤ -4.2
A41G A49C G68U C76U C93U A97U	≤ -4.2
A41G A60G A97U	-0.347
A41G A91U	≤ -4.2

Variant	polymerase ribozyme fitness (log ratio)
A41G C51A G83A	-2.57
A41G C54G G68A G84A U104A C108U	≤ -4.2
A41G C54U U78A G81A G100A G141U U148A	≤ -4.2
A41G C57A G59A G68U	≤ -4.2
A41G C57G G88C U90G G140C G143C	≤ -4.2
A41G C63U	0.774
A41G C69A G84A G94C C125G G128A	≤ -4.2
A41G C69G U90G	≤ -4.2
A41G C75G G83C C87G C99A	≤ -4.2
A41G C76U G84U C85A A97U G100A G140U	≤ -4.2
A41G C79A G84A A89U	≤ -4.2
A41G C85A U101G	-1.82
A41G C85G C93G C103U G112U G128U G143C	≤ -4.2
A41G C93A C96A C103A U145A	≤ -4.2
A41G C93A G124U	-1.5
A41G C96A C149U	-0.509
A41G G42A G92C U111C A113U C125G	≤ -4.2
A41G G42U A91C C114U U135A	≤ -4.2
A41G G42U C43A C57G C87G C125U	≤ -4.2
A41G G48A C87A U148C	≤ -4.2
A41G G48U C57U G70C U78A G81A C96G A97G C118U C125G	≤ -4.2
A41G G50C C85U C87A C103U C105G A115U	≤ -4.2
A41G G50C C87A A107C C114U A119U G143U	≤ -4.2
A41G G50C C125U A142G	-3.92

Variant	polymerase ribozyme fitness (log ratio)
A41G G50C U77G G94A U104C U111C A120U U148A	≤ -4.2
A41G G59C U82A G83A G100C U127G A142U G152U	≤ -4.2
A41G G67U C99U	≤ -4.2
A41G G68A C75A A91G C96U U102G G141A	≤ -4.2
A41G G74U G133C A137C	≤ -4.2
A41G G80C G84A C95U U135G	≤ -4.2
A41G G86C A121C U139A C149U	≤ -4.2
A41G U44A U55A	-3.41
A41G U53A C75A U82A	≤ -4.2
A41G U53C U55A U82G U127G	-4.02
A41G U55C A60G G83U G84C C93U	≤ -4.2
A41G U56G G59A U61G C76A A91C C95G G124A	≤ -4.2
A41G U61A G92A U135G C149G	≤ -4.2
A41G U104G C105U A122C	-1.26
A41U A47U C79G U90C C95G C105G A106C U127A	≤ -4.2
A41U A49C	-3.83
A41U A49C C85G G88U U102C A137U G141A	≤ -4.2
A41U A49C C96G A113G U135C C149U	≤ -4.2
A41U A52C C93A	≤ -4.2
A41U A52C G62U C87G A89G C95U C116A A142C U146A A150C	≤ -4.2
A41U A52G A107U G140U C149A	≤ -4.2
A41U A60G G86U U109G U144G	≤ -4.2
A41U A60U G80U C93U	≤ -4.2
A41U A73U	-1.65

Variant	polymerase ribozyme fitness (log ratio)
A41U A91U	≤ -4.2
A41U C43G U102G	≤ -4.2
A41U C43U A66C G74U G81C G84A G92A G136U	≤ -4.2
A41U C43U G59A U90G C116G C123U	≤ -4.2
A41U C51G G58U U61A G68A C96A A97C U102C	≤ -4.2
A41U C54G G65C G84U G141A C149A	≤ -4.2
A41U C54G G88C U130A	≤ -4.2
A41U C54G U78C C79G A107U C149A	≤ -4.2
A41U C57A C96A C108A G143A	≤ -4.2
A41U C57A G68A C99A A113C U127A G143A	≤ -4.2
A41U C72A U77A C99A U139C U144A	≤ -4.2
A41U C75G C93U G128U	≤ -4.2
A41U C75G G92U A97G	≤ -4.2
A41U C76A	-1.99
A41U C76U G88C U130C	≤ -4.2
A41U C85A A98G A122U G152U	≤ -4.2
A41U C93A A122G	-4.19
A41U G42A C79A G83U A91U C96U A98G A107C	≤ -4.2
A41U G42A G92U C99A U101G A122U C132U	≤ -4.2
A41U G46A U53A C54G C57U G80U A91G U130A U139A	≤ -4.2
A41U G48C G59A C96A	≤ -4.2
A41U G50A A66C G84U A120U C125G G126U	≤ -4.2
A41U G50A C51A G86U C105G	≤ -4.2
A41U G50A C99G C114A A121G C125A	≤ -4.2

Variant	polymerase ribozyme fitness (log ratio)
A41U G50A U53C C72A G86C U130C U139C U144G	≤ -4.2
A41U G58A A147U	0.803
A41U G58C C79A	≤ -4.2
A41U G68U C93U A106G	≤ -4.2
A41U G71A C79G C95A U102C G143C	≤ -4.2
A41U G80A	-0.78
A41U G80A A97U	-1.76
A41U G80C G88U C103A A107G	≤ -4.2
A41U G81A G84C C85A C96U G126A	≤ -4.2
A41U G83U U90G C93G A106U	≤ -4.2
A41U G84A G86A A120G G124U G128U	≤ -4.2
A41U G84C C103G	≤ -4.2
A41U G92U	-1.05
A41U G124U	-0.896
A41U G140A	-3.78
A41U U44A C54U C79G G83C A98U	≤ -4.2
A41U U44A G50A G70A U78C A107C U111A G128U	≤ -4.2
A41U U45A C51U U127G	≤ -4.2
A41U U45A C79A C87A	≤ -4.2
A41U U45A C85A	≤ -4.2
A41U U45A G58U G70A C87G C93U	≤ -4.2
A41U U45A U53C A122U C125A	≤ -4.2
A41U U53G A110C A115C	≤ -4.2
A41U U55A C85A A150U	-2.65

Variant	polymerase ribozyme fitness (log ratio)
A41U U55A G88U A142U	≤ -4.2
A41U U56G G62C A91U C103U A119U	≤ -4.2
A41U U82C C87U C125G G126C U144G	-2.6
A41U U111A	-3.7
A41U U148G	≤ -4.2
G42A A47C G83U A115G	≤ -4.2
G42A A47C U56G A89G U127A G140A	≤ -4.2
G42A A47U U61A C105G G143A A147C	≤ -4.2
G42A A49C G84U A89G	≤ -4.2
G42A A49U A60G C96U A138G	≤ -4.2
G42A A49U U55A U61G C85A	≤ -4.2
G42A A52C	-3.82
G42A A52C C54A U56C G94C	≤ -4.2
G42A A52C C75U C85A G86C	≤ -4.2
G42A A52C U56A C72U G74U C75U C99G U134C	≤ -4.2
G42A A52U U53A G62C U82C U134C U146G	≤ -4.2
G42A A60C C103G	≤ -4.2
G42A A60G C87G	≤ -4.2
G42A A64G U102G	≤ -4.2
G42A A66G G92U C108U G136A G140U G141U	≤ -4.2
G42A A73G C96A U102G A113U	≤ -4.2
G42A A91C	≤ -4.2
G42A A98G C99U A138G	≤ -4.2
G42A A107C	≤ -4.2

Variant	polymerase ribozyme fitness (log ratio)
G42A A113C C118U C125G	≤ -4.2
G42A C51G C75G C99U	≤ -4.2
G42A C51U A121U	≤ -4.2
G42A C54A C76G C79A A142U	≤ -4.2
G42A C54G U56A G58A G94C	≤ -4.2
G42A C63G U82G C95U U111C C123G U139A	≤ -4.2
G42A C69A G81U C87U C95G G140U	≤ -4.2
G42A C69U C87G	≤ -4.2
G42A C79G A91C C95A C149U U151A	≤ -4.2
G42A C85U C93G G133U G143A	≤ -4.2
G42A C87A	≤ -4.2
G42A C87A C99U C108A U151G	≤ -4.2
G42A C87G C118A	≤ -4.2
G42A C87G G124A	≤ -4.2
G42A C93A U102G U135A	≤ -4.2
G42A C93U A120C G141U	≤ -4.2
G42A C95U A107C C114U	≤ -4.2
G42A C96G A110C G152C	≤ -4.2
G42A C96G U111G A122U	≤ -4.2
G42A C114G G133U A150C	≤ -4.2
G42A C116G A150U	≤ -4.2
G42A G46A G81U C96A U134A	≤ -4.2
G42A G46U G94A A115U U148C	≤ -4.2
